How the values were obtained:
Type in all cases: cell-based, human
EGFR in A549 cells [1] = assay: EGFR expression by Western blot after EGF treatment; conditions: 10 μg/ml for 48 h, then EGF 10 ng/ml, versus vehicle
Method: (§1) In order to address this question, conditions were optimized to measure the expression and phosphorylation of the receptor in these cells. EGFR is known to be phosphorylated very rapidly following exposure to its ligands, including EGF. In parallel with this phosphorylation, the receptor is internalized and recycled and its presence is lost from the cell surface. Two cell lines, A549 and H226, which secreted relatively high levels of sCLU were selected for this analysis. The cells were seeded in multi-well plates and treated for 48 h with 10 μg/ml h16B5, 10 μg/ml control IgG or the vehicle, PBS. Following this incubation, the cells were treated with EGF (10 ng/ml) and the cells were harvested at different times and converted to lysates. These lysates were electrophoresed by SDS-PAGE, the proteins transferred to a nylon membrane and used in Western blots to examine the expression or phosphorylation of EGFR. To measure the expression of EGFR, a commercial antibody designated clone 1005 (Santa Cruz, Biotech, Santa Cruz, Calif.) was used whereas the phosphorylation of EGFR was monitored with an anti-phosphotyrosine antibody designated clone 4G10 (Millipore, Etobicoke, ON). […]

EGFR in H226 cells [2] = assay: as above; conditions: 10 μg/ml for 48 h, then EGF 10 ng/ml, versus control
Method: as §1

EGFR in A549 cells [3] = assay: EGFR tyrosine phosphorylation by Western blot after EGF treatment; conditions: 10 μg/ml for 48 h, then EGF 10 ng/ml, versus untreated and control IgG
Method: as §1
(§2) The activation of EGFR in these cells was also examined. […] However, when the cells were treated with EGF, the appearance of phosphorylated tyrosine residues was detected, even after 2 min (upper panel, lane 2 and lane 6). […]

EGFR in H226 cells [4] = assay: as above; conditions: 10 μg/ml for 48 h, then EGF 10 ng/ml, versus untreated
Method: as §1, §2

A549 cells = assay: E-cadherin cell-surface immunofluorescence; conditions: 10 μg/ml, 48 h, versus control IgG
Method: We also examined the expression of E-cadherin by monitoring its expression on the surface of A549 cells using immunofluorescence. Briefly, the cells were seeded on coverslips and incubated with either a control IgG or h16B5 at 10 μg/ml for 48 h. Following this incubation, the cells were fixed with paraformaldehyde and incubated with a mouse anti-human E-cadherin antibody (manufacturer) for 1 h. After washing, the E-cadherin stained cells were incubated with a secondary antibody conjugated to Rhodamine Red-X. The slides were mounted and specific E-cadherin staining was visualized by fluorescence microscopy.

B1: h16B5: humanized form of anti-clusterin antibody 16B5; heavy chain SEQ ID NO.:9, light chain SEQ ID NO.:10 (antibody)
heavy: QVQLVQSGAEVKKPGATVKISCKVSGFNIKDIYMHWVQQAPGKGLEWMGRIDPAYGNTKYDPKFQGRVTITADTSTDTAYMELSSLRSEDTAVYYCARRYDTAMDYWGQGTLVTVSSASTKGPSVFPLAPCSRSTSESTAALGCLVKDYFPEPVTVSWNSGALTSGVHTFPAVLQSSGLYSLSSVVTVPSSNFGTQTYTCNVDHKPSNTKVDKTVERKCCVECPPCPAPPVAGPSVFLFPPKPKDTLMISRTPEVTCVVVDVSHEDPEVQFNWYVDGVEVHNAKTKPREEQFNSTFRVVSVLTVVHQDWLNGKEYKCKVSNKGLPAPIEKTISKTKGQPREPQVYTLPPSREEMTKNQVSLTCLVKGFYPSDIAVEWESNGQPENNYKTTPPMLDSDGSFFLYSKLTVDKSRWQQGNVFSCSVMHEALHNHYTQKSLSLSPGK
light: DIVMTQSPDSLAVSLGERATINCKSSQSLLNSRTRKNYLAWYQQKPGQPPKLLIYWASTRESGVPDRFSGSGSGTDFTLTISSLQAEDVAVYYCKQSYNLWTFGQGTKLEIKVAAPSVFIFPPSDEQLKSGTASVVCLLNNFYPREAKVQWKVDNALQSGNSQESVTEQDSKDSTYSLSSTLTLSKADYEKHKVYACEVTHQGLSSPVTKSFNRGEC
modifications: Complete heavy chain immunoglobulin sequence for h16B5; Complete light chain immunoglobulin sequence for h16B5
EGFR expression after EGF (EGFR in A549 cells [1]): protected the cells from the EGF-induced degradation of the receptor
EGFR expression after EGF (EGFR in H226 cells [2]): no decrease in EGFR was seen
EGFR tyrosine phosphorylation after EGF (EGFR in A549 cells [3]): higher amount of phosphorylated tyrosine residues on the EGFR
EGFR tyrosine phosphorylation after EGF (EGFR in H226 cells [4]): difference in the phosphorylation of EGFR was reproduced
intensity of E-cadherin staining on the cell surface (A549 cells): marked increase in the intensity of E-cadherin staining
